Measured values from ChEMBL document CHEMBL5308541, “MAIP: An Open-Source Tool to Enrich High-Throughput Screening Output and Identify Novel, Druglike Molecules with Antimalarial Activity” (ACS Med Chem Lett, 2023).
Screen size: about 150,000 compounds; about 540 (0.36%) showed an effect of 50% or more. The list shows a part of the results.

Test system: Plasmodium falciparum
Experiment: Primary screen in NF54 nanoGlo assay, in single point, at 2uM, 72h; a lower Z score goes with more inhibition
Assay type: functional, Erythrocyte
Conditions: timepoint 72 hour

Structure (SMILES)	% Inhibition [%]	Z score
CN1CCc2ncnc(NC[C@H](O)c3ccc(Cl)c(F)c3)c2C1	2	-0.28
CC(C(=O)Nc1cccc2ncccc12)N1CCOC(c2ccc(Cl)cc2)C1 (centres undefined)	9	-1.4
CN(C)c1ncc(CN2CCN(c3nsc4ccccc34)CC2)cn1	5	-0.94
O=c1ccn(Cc2ccc(F)c3cccnc23)c2ccccc12	-10	1.51
O=C(c1nccc2ccccc12)N(CCN1CCCCC1)[C@H]1CCCNC1	-11	1.97
COc1ccc(Cl)cc1Nc1cc(C)nc(N)n1	-9	2.03
O=C1CCN(Cc2ccncc2)CCC[C@H](C(=O)NCCN2CCC(N3CCCCC3)CC2)CCN1	-10	1.71
O=c1[nH]ccnc1N1CCC[C@H](Nc2cnc3cc(F)c(F)cc3n2)C1	-11	1.71
O=C(Nc1ccc2[nH]c(-c3ccccc3Cl)nc2c1)c1ccc(N2C(=O)CCC2=O)cc1	-1	0.13
CN(C)Cc1ccc(-c2ccccc2CNCc2ccc(N(C)CCC#N)cc2)cc1	13	-2.17
CN(CCN1CCCC1)C(=O)c1ccc(-c2ccc3[nH]ccc3c2)cc1	-5	0.74
Fc1cnc(NCCCn2ccc3ccccc32)nc1N1CCCC1	-4	0.83
CN(C)CC(C)(O)CNc1nccc(NC2CCCOC2)n1 (centres undefined)	10	-2.21
Cn1ccc(-c2nc(CNc3nc4cc(Cl)cc(Cl)c4o3)cs2)n1	-7	1.61
O=C(c1ccco1)N1CCC[C@H](NC2CCC3(CCNCC3)CC2)C1	-1	0.3
CC(C)N1CCN(CCCN2CCCN(C(=O)c3ccc(F)cc3)CC2)CC1	-4	0.85
NC(=O)[C@@H]1CCCN1C1CCN(c2ccnc3c(F)cccc23)CC1	0	0.08
Cn1ncc2c(NCc3ccc4c(c3)OCCCO4)nc(C3CCCC3)nc21	2	-0.28
Cc1cccc(N2CCN(c3ncnc4c3[nH]c3ccccc34)C[C@@H]2C)c1	-8	1.33
C[C@@H](c1nc(-c2cccc(C(F)(F)F)c2)no1)N1CCN(Cc2csc(-c3ccco3)n2)CC1	-9	1.85
O=C(c1cccnc1NC[C@H]1CCN(C2CCCCC2)C1)N1CCCC1	3	-0.52

Structure (SMILES)	% Inhibition [%]	Z score
CN1CCC(N2CCC(CCN(C)C(=O)N[C@@H]3CCCNC3)CC2)CC1	-1	0.12
O[C@@H](CNC1CCN(c2ncnc3[nH]cnc23)CC1)COC1CCCCC1	-11	2.45
CCN(CC)S(=O)(=O)c1ccc2[nH]cc(C(=O)NCCCN3CCC(N4CCCCC4)CC3)c(=O)c2c1	-9	1.47
Cc1noc(-c2ccc(-c3cccc(C(=O)N4CCC5CNCC54)c3)nc2)n1 (centres undefined)	-3	0.66
COc1ncncc1-c1ccc2c(c1)OC(C)(C)C(=O)N2	-4	0.66
O[C@@H]1CN(c2ccncc2)CCN(C2CCC3(CCNCC3)CC2)C1	-4	0.84
CC(C)OC(=O)N1CCC(NCCc2csc(-c3cnccn3)n2)CC1	-4	0.83
COc1ccc(F)cc1CNC1CCN(C)CC1	-4	0.62
N#Cc1ccc(CN2CCC(Nc3cccc(OCC(F)F)n3)CC2)cc1	2	-0.27
COCCNc1nc(N[C@@H](C)c2ccccc2)c2ccccc2n1	52	-11.2
CN1CCC(N2CCC[C@H]2C(=O)N(C)Cc2cccc3cnccc23)CC1	-8	1.36
Cc1ccc2[nH]c(CNC[C@@H](CO)C3CCC3)cc2c1C	28	-4.25
CN(C)Cc1ccccc1-c1ccc2cn[nH]c2c1	-3	0.51
Cc1cccc(NC(=O)CCNC2CCN(c3ccc(F)cc3C)CC2)c1	-5	0.83
CN1CCCN(CC(=O)Nc2ccc(-c3cccc(F)c3F)cn2)CC1	-6	1.21
Cn1cc(-c2cccc(CNC(=O)[C@H](C3CC3)N3CCCC3)c2)cn1	-6	1.37
Cc1ccc2sc(NCCCN(C)C)nc2c1C	-3	0.52
CCN1CCC[C@@H]1CN1CCCN(C(=O)c2ccc3ncccc3c2)CC1	-2	0.34
Nc1cc(NC2CCN(Cc3cccc(O)c3)CC2)nc(N2CCCC2)n1	2	-0.45
COc1ccccc1-c1c(-c2nc3ccccc3s2)c(N)nc2cc(-c3ccc(C)cc3)nn12	6	-1.14
Cc1ccc(OCCCC(=O)NC2CCCC2CO)cc1C (centres undefined)	-7	1.21
